Data published in PubChem BioAssay AID1347417 (National Center for Advancing Translational Sciences (NCATS), 2020).
The whole screen tested about 120,000 compounds, of which about 5,300 (4.4%) were called active. The shares of active, inactive and inconclusive entries below differ from those in the screen. Calls follow the shape of the dose curve; as a rule, active = well fitted inhibition curve with a large enough effect; inconclusive = small, poorly fitted or top-dose-only effect; inactive = no such curve, though single readings can be large or run the other way. A potency beside an inconclusive call is a rough fit, not a confirmed value.

assay: qHTS Primary assay for Inhibitors of Plasmodium falciparum Dd2 growth in vitro; also: nearly all actives have a fitted effect of over 65% in size; details: P. falciparum Dd2 growth, SYBR Green, 72 h; series mostly up to 28.9 µM
Text: Malaria, a parasitic disease spread to humans through the bite of a Plasmodium infected Anopheles mosquito, continues to be a global health burden affecting millions of people, with an estimated 228 million cases and 405,000 deaths in 2018. Concerns about safety and limitations of current antimalarial treatments strongly emphasize the need to develop new therapeutic options. The scarce number of chemotypes and validated drug targets with efficacy against the liver stage, have hindered development of new antimalarials. To address this, a chemoprophylactic drug discovery effort was conducted through a combined phenotypic high-throughput asexual blood stage and liver stage screen, providing a robust foundation to identify liver-stage active lead chemotypes. Compounds were initially screened against Plasmodium falciparum Dd2 strain parasites using a in vitro SYBRGreen-1 based 72 hr proliferation assay to identify novel chemotypes to advance to liver stage assays. NIH/NCATS Early Translation Branch Assay Submitter (PI): Anton Simeonov Ph.D.
Malaria-vivax Assay Protocol: PROTOCOL TABLE (as described by Inglese et al., 2007) SEQUENCE No. (e.g., 1, 2, 3, etc.); […] (e.g., Cells, Incubation, Reagent, etc.); VALUE; DESCRIPTION SEQUENCE, Parameter, Description 1; Reagent; 3 uL complete malaria growth medium, 1536 TC treated Black clear bottom plate 2; Controls; 23 nL positive control artesunate (300 nM final) to column 1; Neutral control DMSO to columns 2-4 3; Compound; 23 nL of compounds in dose response concentration (29 uM to 0.5 nM final) 4; Reagent; 5 uL malaria infected red blood cells (2.5% hematocrit final, 0.3% parasitemia 5; Time; 72 hours at 37C (5% O2, 5% CO2, 90% N2; 95% Rh) 6; Reagent; 2 uL lysis buffer/SYBRGreen-1, 25 sec shake immediately following dispense 7; Time; ~16 hours at 37C (5% O2, 5% CO2, 90% N2; 95% Rh) 8; Detector; EnVision (PerkinElmer) bottom read at 485/14nm excitation and 535/25 nm emission NOTES (numbers refer to sequence above): 1; Complete Malaria Growth Media: 1X RPMI-1640 w/L-glutamine, 5.5g/L Albumax II, 367 uM Hypoxanthine, 25 mM HEPES, 0.25% Sodium Bicarbonate, 35 uM Gentamicin sulfate 2; Controls were added using the Kalypsis Pintool (Wako USA) equipped with 1536 pinhead 3; Compounds were added in a 7-point, titration with a high final concentration of 29 uM by Pintool from seven inter-plate titrations of library plates and two DMSO control plates at the beginning and end (see Yasgar et al., 2008). 4; Red blood cells infected with Plasmodium falciparum Dd2 parasites were used. 6; Lysis buffer: 20 mM Tris-HCl, 10 mM EDTA, 0.16% Saponin, 1.6% Triton-X, 10X SYBR Green. REFERENCE: Inglese J, Shamu CE, Guy RK. 2007. Reporting data from high-throughput screening of small-molecule libraries. Nat Chem Biol. doi:10.1038/nchembio0807-438 Yasgar A, Shinn P, Jadhav A, Auld D, Michael S, Zheng W, Austin CP, Inglese J, Simeonov A. 2008. Compound Management for Quantitative High-Throughput Screening. J Lab Autom 13:79-89. doi:10.1016/j.jala.2007.12.004
Potency is read from the fitted curve at half-maximal effect; tags tell the direction and shape of the fitted curve.

| SMILES | Potency |
| --- | --- |
| CN(CC1CCOCC1)S(=O)(=O)c1ccccc1Br | inconclusive: 0.316 µM [inhibitor, partial curve, poor fit] |
| CCN(Cc1ccncc1)C(=O)c1cc(-c2cnn(CC)c2)nc2cc(C)ccc12 | inactive |
| O=C(NC1CCN(Cc2ccccc2)CC1)c1cc2c(s1)CN(C1CCCC1)C2 | active: 7.08 µM |
| O=C1NC2(CN(C(=O)c3ccccc3F)C2)Oc2ccccc21 | inconclusive: 3.16 µM [inhibitor, partial curve, poor fit] |
| CN1Cc2cccn2CC1CNC(=O)c1cccc(F)c1 (centres undefined) | inconclusive: 4.47 µM [inhibitor, partial curve] |
| CCc1nc2c(=O)n(CC(=O)NCc3ccc4c(c3)OCO4)nc(C)c2s1 | inactive |
| CCOc1c(CN(C)C(=O)C(c2ccc(F)cc2)N(C)C)cccc1OC (centres undefined) | inconclusive: 8.91 µM [inhibitor, single point] |
| CCc1noc(-c2cccn3c(CNC(=O)CCc4ccc(OC)cc4)nnc23)n1 | inconclusive: 2.24 µM [inhibitor, partial curve, poor fit] |
| N#Cc1cccc(C(=O)NC2CCN(C(=O)N3CC4CC(C3)[C@H]3CCCC(=O)N3C4)CC2)c1 (some centres undefined) | inactive |
| CCCCOc1ccc(C(=O)N2CC(=O)Nc3ccc(Br)cc3C2c2ccc(F)cc2)cc1 (centres undefined) | inconclusive: 17.8 µM [inhibitor, single point] |
| Cc1cc(C)cc(-n2c(SCC(=O)N3CCCC3)nc3c([nH]c4ccccc43)c2=O)c1 | inactive |
| COc1cccc(CN2CCC[C@H]2C(=O)N2CCCCCCNC(=O)CC2)c1OC | inconclusive: 2.82 µM [inhibitor, partial curve, poor fit] |
| Cc1cc(C(=O)N[C@@H]2CN(Cc3cccnc3)C[C@H]2CN(C)C)n(C)n1 | inactive |
| CCc1ccc2ncc(S(=O)(=O)c3ccc(Cl)cc3)c(N3CCN(CC)CC3)c2c1 | inconclusive: 7.94 µM [inhibitor, partial curve, poor fit] |
| O=C(c1ccccc1F)N1CCC(c2nc3c(nnn3Cc3cccc(F)c3)c(=O)[nH]2)CC1 | inconclusive: 11.2 µM [inhibitor, partial curve, poor fit] |
| CCCCOc1c(CNC2(CO)CCCC2)cccc1OC | inconclusive: 7.94 µM [inhibitor, partial curve] |
| Cc1oc(-c2ccc(C(=O)NC(C)c3ccccc3)cc2)nc1CS(=O)(=O)c1ccccc1 (centres undefined) | inconclusive: 20 µM [inhibitor, single point] |
| CN1c2cc(C(=O)N3CCN(c4cccc(Cl)c4)CC3)ccc2C(=O)N2CCCC21 (centres undefined) | inconclusive: 4.47 µM [inhibitor, partial curve, poor fit] |
| O=C1NCCCCCCN(Cc2ccncc2)[C@@H]2CN(C(=O)c3cccs3)CC[C@@H]12 | inconclusive: 17.8 µM [inhibitor, single point] |
| COC(=O)C1=CN(CC(=O)Nc2ccc(C)cc2Cl)S(=O)(=O)N=C1C | inactive |
| COc1ccc(CN(C)C2CCCN(CCc3ccccc3)C2)c(OC)c1OC (centres undefined) | inactive |
| CN(Cc1ccc(-c2ccccc2)cc1)Cc1cccn1C | inconclusive: 17.8 µM [inhibitor, single point] |

| SMILES | Potency |
| --- | --- |
| O=C1CC2(CCN(C(=O)c3ccccn3)C2)Nc2ccccc2N1 (centres undefined) | inactive |
| COc1ccc(Cc2nc3nccc(-c4ccco4)n3n2)cc1 | inconclusive: 12.6 µM [inhibitor, partial curve, poor fit] |
| COc1ccc(-c2cc(N3CCN(C(=O)c4ccccc4C)CC3)n[nH]2)cc1 | inactive |
| Cn1c(CNC(=O)CC2CCOC3(CCN(S(C)(=O)=O)CC3)C2)nc2ccccc21 (centres undefined) | inactive |
| O=C(c1ccc(F)cc1)N1CC[C@H](c2nc3ccc(F)cc3[nH]2)C1 | inconclusive: 31.6 µM [inhibitor, single point] |
| CN(C)CCN(Cc1ccccc1)S(=O)(=O)c1ccc(-c2cc(C(F)(F)F)on2)s1 | inconclusive: 7.94 µM [inhibitor, partial curve, poor fit] |
| Cc1cccc(CN2CCCC(O)(CN3CCOCC3)C2=O)c1 (centres undefined) | inactive |
| O=C1NC2(CCCN([S+](=O)([O-])c3ccccc3)C2)COc2ccccc21 (centres undefined) | inconclusive: 10 µM [inhibitor, single point] |
| CN(C)CCNC(=O)CCCn1c(=O)c2cccn2c2ccccc21 | inconclusive: 0.0631 µM [inhibitor, full curve, poor fit] |
| COc1ccc(C2Cn3nnc(C(=O)N4CCN(C(=O)c5c(F)cccc5F)CC4)c3CO2)cc1 (centres undefined) | inconclusive: 8.91 µM [inhibitor, single point] |
| COc1ccc(-c2[nH]nc3ncc(-c4ccccc4)nc23)c(C)c1 | inactive |
| O=C(CCc1nc2ccccc2s1)N1[C@H]2CC[C@@H]1c1cnc(-c3ccc(F)cc3)nc1C2 | inconclusive: 10 µM [inhibitor, single point] |
| COc1ccc(NC(=O)c2sc3nc(C)c(C(=O)Nc4ccc(C)cc4C)c(-c4ccccc4Cl)c3c2N)cc1 | inconclusive: 3.16 µM [inhibitor, full curve, poor fit] |
| COc1ccc(-n2cc(C(=O)N(C)c3cc(C)ccc3OC)c3ccccc3c2=O)cc1 | inconclusive: 15.8 µM [inhibitor, single point] |
| CCc1ccc(Nc2ncncc2-c2nc(-c3ccccc3)no2)cc1 | inconclusive: 3.55 µM [inhibitor, single point] |
| CCOc1ccccc1NC(=O)CSc1ccc2nnc(CCNS(=O)(=O)c3ccccc3)n2n1 | inconclusive: 17.8 µM [inhibitor, single point] |
| CC(C)Cc1cc(C(=O)N2CCOCC2CC(=O)N2CC=CC2)nc(=O)[nH]1 (centres undefined) | inactive |
| COc1ccc(OC)c(S(=O)(=O)NCCc2ncc(C)n2C(C)C)c1 | inconclusive: 2.82 µM [inhibitor, partial curve, poor fit] |
| CC(=O)Nc1ccc(NS(=O)(=O)c2cc(Br)cc3c2N(C(=O)C2CC2)CC3)cc1 | inconclusive: 0.251 µM [inhibitor, partial curve] |
| COc1cc(OC)c(NC(=O)c2cc(C(C)=O)n3ccccc23)cc1Cl | inconclusive: 17.8 µM [inhibitor, single point] |
| Cc1cnc(C)n1CC1CCN(S(=O)(=O)c2cccc(F)c2)CC1 | inconclusive: 10 µM [inhibitor, partial curve, poor fit] |
| CC#CCn1cc2c3c(cccc31)[C@H](CC(C)C)N[C@H](C(=O)NC(C)C)C2 | inconclusive: 3.16 µM [inhibitor, single point] |

| SMILES | Potency |
| --- | --- |
| O=C1CC(c2ccccc2)N(Cc2ccncc2)CCCN(C(=O)CN2CCCC2=O)CCN1 (centres undefined) | inactive |
| O=C(NC1CCN(c2cn[nH]c(=O)c2)CC1)C1CCCCC1 | inactive |
| NC(=O)C1CCN([C@H]2[C@@H]3OC[C@@H](O3)[C@@H](NCc3ccc(OC(F)(F)F)cc3)[C@@H]2O)CC1 | inactive |
| COCCCNC(=O)N1CCC2(CC1)CC(N(Cc1ccc(F)cc1)C1CC1)CCO2 (centres undefined) | inconclusive: 7.94 µM [inhibitor, partial curve, poor fit] |
| Cc1nn(Cc2ccccc2)c(C)c1[C@@H]1C=C[C@@H](NC(=O)c2ccco2)C1 | inconclusive: 3.98 µM [inhibitor, full curve, poor fit] |
| O=C(NCc1ccc(Cl)nc1)c1ccc2ccnn2c1 | inactive |
| COc1ccc(NC(=O)N2Cc3[nH]cnc3C[C@H]2c2nc(-c3ccc(Cl)cc3)no2)cc1 | inactive |
| O=C(c1ccco1)N1CCCN(c2cc(-c3ccc(Br)cc3)[nH]n2)CC1 | inconclusive: 0.562 µM [inhibitor, partial curve] |
| O=C(NCc1cccs1)c1nc(-c2cc(Cl)cc(Cl)c2)c2ccccn12 | inconclusive: 10 µM [inhibitor, single point] |
| COc1ccc(CCNC(=O)c2ccc3nc(Cc4ccccc4)oc3c2)cc1OC | inconclusive: 20 µM [inhibitor, single point] |
| C[C@H]1[C@@H]2[C@@H](O)C([C@H](C)C(=O)NC3CCCCC3)CC[C@@]2(C)CC[C@@H]1NC(=O)C1CCCCC1 (some centres undefined) | inconclusive: 11.2 µM [inhibitor, partial curve] |
| Cc1cc(C(F)(F)F)nn1CCNC(=O)c1csc(-c2cccs2)n1 | inconclusive: 4.47 µM [inhibitor, full curve, poor fit] |
| COc1ccc(NC(=O)c2cnn(-c3ccc(F)cc3F)c2C2CCN(C(=O)OC(C)(C)C)CC2)cc1Cl | active: 7.94 µM |
| COCCNc1ccc(-c2noc([C@@H]3CCCN3Cc3cc(OC)c(OC)c(OC)c3)n2)cn1 | active: 8.91 µM |
| COCCCNC(=O)c1ccc(Cn2c(=O)c3ccccc3n(Cc3ccccc3C)c2=O)cc1 | inconclusive: 0.891 µM [inhibitor, partial curve, poor fit] |
| Cc1oc(C(O)c2ccccc2F)nc1C(=O)Nc1ccc2[nH]ccc2c1 (centres undefined) | inconclusive: 28.2 µM [inhibitor, single point] |
| COc1cccc(CC(=O)N2CC(CNc3ccccc3)C3(C2)CN(c2ccccc2)C3)c1 (centres undefined) | inconclusive: 1.12 µM [inhibitor, partial curve, poor fit] |
| COc1ccc(CNC(=O)C2(c3ccc(NC(C)=O)cc3)CCC2)cc1 | inactive |
| CN(Cc1cncs1)C1CCc2ccccc21 (centres undefined) | inconclusive: 31.6 µM [inhibitor, single point] |
| Cc1ccccc1Nc1c(-c2ccco2)nc2c(C)cccn12 | inconclusive: 6.31 µM [inhibitor, partial curve] |
